Test results taken from PubChem BioAssay (NCI).
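Cultured in 96-well plates, cells were exposed to test compound for 48 hours across five concentrations. TGI is the concentration that stops growth completely.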

System: NCI-H322M lung
Assay: NCI anticancer screen, dose series, 48 h

c1ccc(C2=NN3CN(N2)c2ccccc2OCCCOc2ccccc23)cc1
TGI: > 100 µM

O=C1/C(=C/c2ccccc2S)N=C(c2ccccc2)N1c1ccc2c(c1)Sc1cc(N3C(=O)/C(=C/c4ccccc4S)N=C3c3ccccc3)ccc1N2
TGI: 32.4 µM
